# From the supplement of paper PMC8728848
# Some of the results follow.
# Experiments:
# Assay in all cases: glycan array binding signal (z-score within array); higher = stronger binding
# Details in all cases: glycan notation: IUPAC condensed, linker removed
# [1] = molecular target: Neu5Ac(a2-3)Gal(b1-4)GlcNAc(b1-3)Gal(b1-4)GlcNAc(b1-3)Gal(b1-4)GlcNAc
# Outline: (§1)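 The binding signal is a Z-score computed within each array and averaged over linkers. Arrays of the same protein sequence at different concentrations or buffers were also averaged together. Data originate from 3228 arrays in the Consortium for Functional Glycomics database, kept only where the protein sequence was available.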
# [2] = molecular target: Neu5Ac(a2-3)Gal(b1-4)GlcNAc(b1-3)Gal(b1-4)GlcNAc(b1-3)Gal(b1-4)GlcNAc(b1-2)Man(a1-3)[Neu5Ac(a2-3)Gal(b1-4)GlcNAc(b1-3)Gal(b1-4)GlcNAc(b1-3)Gal(b1-4)GlcNAc(b1-2)Man(a1-6)]GalNAc
# Outline: as §1
# [3] = molecular target: Neu5Ac(a2-3)Gal(b1-4)GlcNAc(b1-3)Gal(b1-4)GlcNAc(b1-3)GalNAc
# Outline: as §1
# [4] = molecular target: Neu5Ac(a2-3)Gal(b1-4)GlcNAc(b1-3)Gal(b1-4)GlcNAc(b1-3)[Neu5Ac(a2-3)Gal(b1-4)GlcNAc(b1-3)Gal(b1-4)GlcNAc(b1-6)]GalNAc
# Outline: as §1
# [5] = molecular target: Neu5Ac(a2-3)Gal(b1-4)GlcNAc(b1-3)Gal(b1-4)GlcNAc(b1-6)[Gal(b1-3)]GalNAc
# Outline: as §1
# [6] = molecular target: Neu5Ac(a2-3)Gal(b1-4)GlcNAc(b1-3)Gal(b1-4)[Fuc(a1-3)]GlcNAc
# Outline: as §1
# [7] = molecular target: Neu5Ac(a2-3)Gal(b1-4)GlcNAc(b1-3)GalNAc
# Outline: as §1
# [8] = molecular target: Neu5Ac(a2-3)Gal(b1-4)GlcNAc(b1-3)[Neu5Ac(a2-3)Gal(b1-4)GlcNAc(b1-6)]GalNAc
# Outline: as §1
# [9] = molecular target: Neu5Ac(a2-3)Gal(b1-4)GlcNAc(b1-6)GalNAc
# Outline: as §1
# [10] = molecular target: Neu5Ac(a2-3)Gal(b1-4)GlcNAc(b1-6)[Gal(b1-3)]GalNAc
# Outline: as §1
# [11] = molecular target: Neu5Ac(a2-3)Gal(b1-4)GlcNAc(b1-6)[Neu5Ac(a2-3)Gal(b1-3)]GalNAc
# Outline: as §1
# [12] = molecular target: Neu5Ac(a2-3)Gal(b1-4)GlcNAc6S
# Outline: as §1
# [13] = molecular target: Neu5Ac(a2-3)Gal(b1-4)[Fuc(a1-3)]GlcNAc
# Outline: as §1
# [14] = molecular target: Neu5Ac(a2-3)Gal(b1-4)[Fuc(a1-3)]GlcNAc(b1-2)Man
# Outline: as §1
# [15] = molecular target: Neu5Ac(a2-3)Gal(b1-4)[Fuc(a1-3)]GlcNAc(b1-3)Gal
# Outline: as §1
# [16] = molecular target: Neu5Ac(a2-3)Gal(b1-4)[Fuc(a1-3)]GlcNAc(b1-3)Gal(b1-4)GlcNAc
# Outline: as §1
# [17] = molecular target: Neu5Ac(a2-3)Gal(b1-4)[Fuc(a1-3)]GlcNAc(b1-3)Gal(b1-4)[Fuc(a1-3)]GlcNAc(b1-3)Gal(b1-4)[Fuc(a1-3)]GlcNAc
# Outline: as §1
# [18] = molecular target: Neu5Ac(a2-3)Gal(b1-4)[Fuc(a1-3)]GlcNAc(b1-3)GalNAc
# Outline: as §1
# [19] = molecular target: Neu5Ac(a2-3)Gal(b1-4)[Fuc(a1-3)]GlcNAc(b1-6)[Gal(b1-3)]GalNAc
# Outline: as §1
# [20] = molecular target: Neu5Ac(a2-3)Gal(b1-4)[Fuc(a1-3)]GlcNAc(b1-6)[Neu5Ac(a2-3)Gal(b1-3)]GalNAc
# Outline: as §1
# [21] = molecular target: Neu5Ac(a2-3)Gal(b1-4)[Fuc(a1-3)]GlcNAc6S
# Outline: as §1
# [22] = molecular target: Neu5Ac(a2-3)Gal6S(b1-4)GlcNAc
# Outline: as §1
# [23] = molecular target: Neu5Ac(a2-3)Gal6S(b1-4)[Fuc(a1-3)]GlcNAc
# Outline: as §1
# Neu5Ac(a2-3)GalNAc = molecular target: Neu5Ac(a2-3)GalNAc
# Outline: as §1
# [24] = molecular target: Neu5Ac(a2-3)GalNAc(b1-4)GlcNAc
# Outline: as §1
# [25] = molecular target: Neu5Ac(a2-3)[GalNAc(b1-4)]Gal(b1-4)Glc
# Outline: as §1
# [26] = molecular target: Neu5Ac(a2-3)[GalNAc(b1-4)]Gal(b1-4)GlcNAc
# Outline: as §1
# [27] = molecular target: Neu5Ac(a2-3)[GalNAc(b1-4)]Gal(b1-4)GlcNAc(b1-3)GalNAc
# Outline: as §1
# [28] = molecular target: Neu5Ac(a2-3)[Neu5Ac(a2-6)]GalNAc
# Outline: as §1
# Neu5Ac(a2-6)Gal = molecular target: Neu5Ac(a2-6)Gal
# Outline: as §1
# [29] = molecular target: Neu5Ac(a2-6)Gal(b1-3)GlcNAc(b1-3)[Gal(b1-4)GlcNAc(b1-6)]Gal(b1-4)Glc
# Outline: as §1
# Neu5Ac(a2-6)Gal(b1-4)Glc = molecular target: Neu5Ac(a2-6)Gal(b1-4)Glc
# Outline: as §1
# [30] = molecular target: Neu5Ac(a2-6)Gal(b1-4)GlcNAc
# Outline: as §1
# [31] = molecular target: Neu5Ac(a2-6)Gal(b1-4)GlcNAc(b1-2)Man
# Outline: as §1
# [32] = molecular target: Neu5Ac(a2-6)Gal(b1-4)GlcNAc(b1-2)Man(a1-3)Man(b1-4)GlcNAc(b1-4)GlcNAc
# Outline: as §1
# [33] = molecular target: Neu5Ac(a2-6)Gal(b1-4)GlcNAc(b1-2)Man(a1-3)[Gal(b1-4)GlcNAc(b1-2)Man(a1-6)]Man(b1-4)GlcNAc(b1-4)GlcNAc
# Outline: as §1
# [34] = molecular target: Neu5Ac(a2-6)Gal(b1-4)GlcNAc(b1-2)Man(a1-3)[GlcNAc(b1-2)Man(a1-6)]Man(b1-4)GlcNAc(b1-4)GlcNAc
# Outline: as §1
# [35] = molecular target: Neu5Ac(a2-6)Gal(b1-4)GlcNAc(b1-2)Man(a1-3)[GlcNAc(b1-4)][Neu5Ac(a2-6)Gal(b1-4)GlcNAc(b1-2)Man(a1-6)]Man(b1-4)GlcNAc(b1-4)GlcNAc
# Outline: as §1
binder,measurement,setting,value
B160 (Bifidobacterium sp) (protein) MVSHNKRIVAALAAVAAMGIGLAGCGGSDTAGDTKSGSDGGVVNITYMHRLPDSEGMTLVNDIVAKWNKEHPNIQVKATKFDGNAADMIKKLETDVKAGNAPDLAQVGYAEVPEVFTKGLLQDVTDEAAKYKDDFASGPFALMQVDGKTYGLPQDTGPLTYFYNAAEFEKLGITVPKTADELIETAKKTAAQGKYIMTFTPDEAMMMMSGQAGASGPWYKVDGNSWVVNTQTKGSKAVADVYQQLIDNKAALTNPRWDASFDNSIQSGQLIGTVAAAWEAPLFIDSAGGTGAGEWKVTQLGDWFGNGTKTGANGGSGVAVLKGSKHPAEAMEFLDWFNTQVDDLVSQGLVVAATTADAKTPQKWSDYFSGQDVMAEFKTANDNMGDFTYMPGFSAVGAAMKQTAAKAADGSAKVSDVFDTAQKTSVDTLKNLGLSVKE,glycan array binding signal (z-score),[1],-0.174
same,glycan array binding signal (z-score),[2],-0.099
same,glycan array binding signal (z-score),[3],-0.179
same,glycan array binding signal (z-score),[4],-0.107
same,glycan array binding signal (z-score),[5],-0.181
same,glycan array binding signal (z-score),[6],-0.185
same,glycan array binding signal (z-score),[7],-0.103
same,glycan array binding signal (z-score),[8],-0.177
same,glycan array binding signal (z-score),[9],-0.15
same,glycan array binding signal (z-score),[10],-0.184
same,glycan array binding signal (z-score),[11],-0.185
same,glycan array binding signal (z-score),[12],-0.173
same,glycan array binding signal (z-score),[13],-0.183
same,glycan array binding signal (z-score),[14],-0.188
same,glycan array binding signal (z-score),[15],-0.168
same,glycan array binding signal (z-score),[16],-0.165
same,glycan array binding signal (z-score),[17],-0.167
same,glycan array binding signal (z-score),[18],-0.107
same,glycan array binding signal (z-score),[19],-0.078
same,glycan array binding signal (z-score),[20],-0.104
same,glycan array binding signal (z-score),[21],-0.175
same,glycan array binding signal (z-score),[22],-0.177
same,glycan array binding signal (z-score),[23],-0.16
same,glycan array binding signal (z-score),Neu5Ac(a2-3)GalNAc,-0.156
same,glycan array binding signal (z-score),[24],-0.174
same,glycan array binding signal (z-score),[25],-0.155
same,glycan array binding signal (z-score),[26],-0.167
same,glycan array binding signal (z-score),[27],-0.12
same,glycan array binding signal (z-score),[28],-0.17
same,glycan array binding signal (z-score),Neu5Ac(a2-6)Gal,-0.171
same,glycan array binding signal (z-score),[29],-0.179
same,glycan array binding signal (z-score),Neu5Ac(a2-6)Gal(b1-4)Glc,-0.194
same,glycan array binding signal (z-score),[30],-0.179
same,glycan array binding signal (z-score),[31],-0.162
same,glycan array binding signal (z-score),[32],-0.145
same,glycan array binding signal (z-score),[33],-0.158
same,glycan array binding signal (z-score),[34],-0.168
same,glycan array binding signal (z-score),[35],-0.167
